Measured values taken from PubChem BioAssay AID488969 (Vanderbilt High Throughput Screening Facility, 2010).
In all, about 110,000 compounds were measured (“z-score”: median about -0.1, highest 2% from about 2 on). The list shows a part of the results. The source made the active and inactive calls.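 Rule for the calls: active = z-score in the third read window above 3 or below -3; inactive = the rest.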

molecular target: Metabotropic glutamate receptor 8 (Rattus norvegicus) (UniProt P70579); experiment: rat mGluR8 modulators via GIRK flux, primary screen, cell-based, thallium flux, HTS (AID 488969); details: HEK293 rat mGluR8, GIRK (G protein-gated inwardly rectifying potassium channel) thallium flux, FluoZin2; at 10 µM; stronger effect = higher value; submaximal glutamate (EC20) added with thallium
UniProt P70579, sequence (P70579 whole entry, looked up): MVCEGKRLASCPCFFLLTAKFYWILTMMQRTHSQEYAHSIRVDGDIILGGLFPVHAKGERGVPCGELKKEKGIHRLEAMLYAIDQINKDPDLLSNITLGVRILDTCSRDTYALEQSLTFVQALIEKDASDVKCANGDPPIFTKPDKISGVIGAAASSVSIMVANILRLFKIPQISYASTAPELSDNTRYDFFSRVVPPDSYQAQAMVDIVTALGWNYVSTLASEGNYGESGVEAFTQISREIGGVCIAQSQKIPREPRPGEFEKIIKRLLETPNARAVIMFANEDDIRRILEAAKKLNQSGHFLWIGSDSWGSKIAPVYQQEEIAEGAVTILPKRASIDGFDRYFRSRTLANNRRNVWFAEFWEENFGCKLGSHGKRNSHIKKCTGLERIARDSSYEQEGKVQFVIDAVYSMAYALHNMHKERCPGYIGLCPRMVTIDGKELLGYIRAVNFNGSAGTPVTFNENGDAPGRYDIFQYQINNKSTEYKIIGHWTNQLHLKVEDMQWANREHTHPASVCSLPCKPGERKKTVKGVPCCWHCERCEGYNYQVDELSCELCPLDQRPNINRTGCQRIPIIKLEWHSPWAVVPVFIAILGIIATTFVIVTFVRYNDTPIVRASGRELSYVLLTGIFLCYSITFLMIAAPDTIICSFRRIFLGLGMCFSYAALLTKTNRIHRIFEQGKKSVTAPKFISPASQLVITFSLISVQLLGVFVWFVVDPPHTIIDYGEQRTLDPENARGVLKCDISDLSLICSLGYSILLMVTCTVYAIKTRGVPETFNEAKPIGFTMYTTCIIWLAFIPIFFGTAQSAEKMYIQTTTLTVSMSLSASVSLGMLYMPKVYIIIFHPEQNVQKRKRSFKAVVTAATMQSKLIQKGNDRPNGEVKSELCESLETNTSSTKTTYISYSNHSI

| SMILES | z-score |
| --- | --- |
| COc1ccc(C2=NOC(C(=O)NCCCn3ccnc3)C2)cc1 (stereo not given) | -0.166 |
| C/C(=N\O)c1c(C)c2ccccc2n1C | 0.566 |
| COc1ccccc1NS(=O)(=O)c1cc(NC(=O)c2ccc3c(c2)OCCO3)ccc1C | -0.423 |
| Cc1ccccc1CN1CCN(CC(=O)NCc2ccco2)C1=O | 0.0532 |
| O=C1c2ccccc2C(=O)N1CCCC(=O)N1CCCc2ccccc21 | 0.145 |
| O=C(N/N=C(\c1ccccc1)c1cccnc1)C(O)(c1ccccc1)c1ccccc1 | -1.71 |
| COc1ccc(S(=O)(=O)N(C)CC(=O)N2CCCCCC2)cc1OC | 1.16 |
| CCOc1ccccc1C(=O)N[C@H](C(=O)OCc1cc(=O)oc2cc(C)ccc12)C(C)C | -2.48 |
| CC(=O)c1ccc(NCC(=O)N2CCN(c3ccccc3)CC2)cc1 | -0.381 |
| CCN(CC)C1=NC=CC(c2ccccc2)=CC1C (stereo not given) | 0.079 |
| C[n+]1cn(CC(O)COCc2ccccc2)c2ccccc21 (stereo not given) | -0.311 |
| COc1ccc(C(=O)NCCCCCC(=O)O)cc1OC | -0.868 |
| O=C(COC(=O)c1cccc(Oc2ccccc2)c1)NCc1ccco1 | -0.177 |
| COc1ccc(/C=N/NC(=O)C[n+]2ccccc2)c(OC)c1OC | -0.273 |
| CC1(C)OC(=O)N(c2ccccn2)C1(C)O (stereo not given) | 0.374 |
| O=C(CCCCCn1c(=S)[nH]c2cc3c(cc2c1=O)OCO3)N1CCN(Cc2ccccc2)CC1 | 0.177 |
| COc1ccc(/C(O)=C2/C(=O)C(=O)N(CCN(C)C)C2c2ccccn2)cc1OC (stereo not given) | 0.0254 |
| O=S(=O)(N1CCCCC1)N1CCCN(S(=O)(=O)N2CCCCC2)CC1 | -0.684 |
| c1ccn2c(Cc3nnc4ccccn34)nnc2c1 | 0.422 |
| Cc1ccc(-c2noc(CSc3nnc(-c4ccncc4)n3-c3ccc(C)cc3)n2)cc1 | -0.0672 |
| CC(C)CNC(=O)c1cc(-c2ccc(Br)cc2)on1 | 0.671 |
| COc1ccc(N2C(=O)C(Cl)=C(N(CCO)Cc3ccccc3)C2=O)cc1 | 0.147 |
| O=C(CCC(=O)Nc1ccccc1)NNC(=O)c1ccco1 | 0.0483 |
| Nc1ccc(Nc2ccccc2)c(Cl)c1 | -1.03 |

| SMILES | z-score |
| --- | --- |
| CCCn1c(=O)c2ccccc2n2c(SCc3c(C(=O)OCC)oc4ccccc34)nnc12 | -0.857 |
| O=C(N=NC(=O)c1ccc2c(O)n(C3CCCCC3)c(O)c2c1)c1cccnc1 | 0.507 |
| Cc1nn(C)cc1CNC(=O)c1cccc(F)c1 | -0.127 |
| C=CCn1c(=O)c2c3c(sc2n2c(Nc4ccc(C(=O)OCC)cc4)nnc12)CCCC3 | -0.187 |
| COc1nc(NS(=O)(=O)c2ccc(C)cc2)nc(C)c1Cl | 0.0815 |
| Cn1c(Sc2ccc([N+](=O)[O-])cc2C(F)(F)F)nnc1-c1ccccc1 | -0.17 |
| COc1cccc(-c2nc(CS(=O)(=O)c3ccccc3)no2)c1 | -0.0979 |
| O=C(NC(NC(=S)Nc1cccc(Cl)c1)C(Cl)(Cl)Cl)OCc1ccccc1 (stereo not given) | -0.198 |
| Nc1ccc(Nc2nc(-c3ccncc3)cs2)cc1 | 0.173 |
| COc1ccccc1NC(=O)COC(=O)c1ccccc1OCC(=O)Nc1ccc(SC(F)F)cc1 | -0.519 |
| O=C(NC(=S)N1CCN(Cc2ccc3c(c2)OCO3)CC1)c1ccc(Cl)cc1 | active: 15.2 |
| Oc1cccc(Nc2nc(NCC3CCCO3)c3ccccc3n2)c1 (stereo not given) | 1.93 |
| O=C(CCCCCCN1C(=O)c2ccccc2C1=O)NC1CCCCC1 | -0.436 |
| Cc1cccc(S(=O)(=O)NCC2CCCO2)c1 (stereo not given) | 0.496 |
| COC(=O)c1cc2ccccn2c2c(C(=O)OC)c(C(=O)OC)cc1-2 | 0.219 |
| COc1ccccc1NC(=S)NCc1ccc2c(c1)OCO2 | -0.0224 |
| Cc1ccc(S(=O)(=O)N2CCN(C)CC2)c(C)c1N(C)S(=O)(=O)c1ccc(Cl)cc1 | -0.146 |
| Cc1nn(Cc2c(F)c(F)c(F)c(F)c2F)c(C)c1NC(=O)c1c([N+](=O)[O-])cnn1C | -0.131 |
| O=C(CN1C(=O)c2ccccc2S1(=O)=O)Nc1ccccc1 | 0.0516 |
| O=C(N/N=C\c1ccc(OCC(=O)N2CCCC2)cc1)C(=O)Nc1ccccc1F | -0.26 |
| CSc1nc(-c2ccccc2)nn1S(=O)(=O)c1ccc(Cl)cc1 | -0.00219 |
| Clc1ccc2oc3c(Cl)ncnc3c2c1 | -0.993 |
| O=c1[nH]c(=O)n(-c2ccccc2)c2c1C(C(F)(F)F)(C(F)(F)F)N=C(CCC1CCCCC1)N2 | 0.411 |
| FC(F)(F)c1cc(C(F)(F)F)c2ccc(N3CCN(c4ccc(Cl)cc4)CC3)nc2n1 | -0.0746 |

| SMILES | z-score |
| --- | --- |
| CCCCCC(=O)Nc1ccc2oc(-c3ccncc3)nc2c1 | -0.428 |
| COc1ccc(NC(=S)Nc2cccc3cnccc23)cc1 | -0.198 |
| COc1cc(NC(=O)C2CCN(S(=O)(=O)c3cccc4nonc34)CC2)cc(OC)c1 | 0.0561 |
| COc1ccc(-c2ccc(CCC(=O)O)n2C(C)C)cc1 | -0.109 |
| CCSc1nnc(-c2ccc(S(=O)(=O)NCc3cccs3)cc2)o1 | -0.0473 |
| Cn1c(SCC(=O)N2CCCCC2)nc2c([nH]c3ccccc32)c1=O | -0.656 |
| O=C(Nc1cccc(F)c1)c1ccccc1-c1ccccc1 | -0.369 |
| CCCCn1c(NCCC)nc2c1c(=O)[nH]c(=O)n2C | -0.188 |
| O=C(CCn1c(=O)[nH]c2ccsc2c1=O)NCCc1ccc(Cl)cc1 | -0.21 |
| CCN(CC)S(=O)(=O)c1ccc2oc(Nc3ccc4c(c3)OCCO4)nc2c1 | 0.166 |
| Cc1ccccc1NC(=O)c1sc2nc3c(c(-c4ccco4)c2c1N)CCCC3 | -0.131 |
| Fc1ccc2c(c1)C1C=CCC1C(c1cc3c(cc1Br)OCO3)N2 (stereo not given) | -0.0336 |
| NC(=O)C1CCN(C(c2ccccc2)c2nnnn2C2CCCC2)CC1 (stereo not given) | 0.328 |
| Cc1nnc(N)nc1C | 1.02 |
| Cc1ccc(OCc2nc(C#N)c(N3CCN(Cc4ccccc4)CC3)o2)cc1 | 0.0819 |
| COC(=O)C1=C(NC(=O)COc2ccc(Cl)cc2Cl)CCS1 | 0.19 |
| O=C(C[n+]1cccc(CNC(=O)c2ccc(OC(F)F)cc2)c1)Nc1ccccc1Cl | 0.347 |
| N#Cc1c(C#N)c(-c2ccccc2)n(-c2ccccc2)c1N | -0.317 |
| Cc1cccc(C(=O)O/N=C(\N)c2ccc(Br)cc2)c1 | -0.121 |
| O=C(c1cc(-c2ccc(Cl)cc2)on1)N1CCOCC1 | -0.66 |
| COc1ccc(C(=O)N(CC2CCCO2)C(C(=O)NC2CCCC2)c2ccc(C)cc2)cc1OC (stereo not given) | -0.186 |
| O=C(CN1C(=O)c2ccccc2C1=O)Nc1ccccc1C(=O)N1CCCC1 | -0.434 |
